Results are given in words; binding and its absence hold for the method and conditions named. For some of these results: Binding seen in cells or lysates may run through a third protein. Some results given as binding are weak or reduced against the parent protein; the word gives no strength. For some of these results: Where a sequence is shown, tags or fusion partners need not be part of it.
B1: YFP1-174 aa -PYL8 (receptor, UniProt Q9FGM1 1-188)
chain: MEANGIENLTNPNQEREFIRRHHKHELVDNQCSSTLVKHINAPVHIVWSLVRRFDQPQKYKPFISRCVVKGNMEIGTVREVDVKSGLPATRSTERLELLDDNEHILSIRIVGGDHRLKNYSSIISLHPETIEGRIGTLVIESFVVDVPEGNTKDETCYFVEALIKCNLKSLADISERLAVQDTTESRV
B2: PYR1-LIKE8 (PYL8) fused to the GAL4 activation domain (PYL8-pGADT7) (receptor, UniProt Q9FGM1 1-188)
chain: B1 chain
B3: INNER NO OUTER (INO) fused to the GAL4 activation domain (protein, UniProt Q9LDT3 1-231)
chain: MTKLPNMTTTLNHLFDLPGQICHVQCGFCTTILLVSVPFTSLSMVVTVRCGHCTSLLSVNLMKASFIPLHLLASLSHLDETGKEEVAATDGVEEEAWKVNQEKENSPTTLVSSSDNEDEDVSRVYQVVNKPPEKRQRAPSAYNCFIKEEIRRLKAQNPSMAHKEAFSLAAKNWAHFPPAHNKRAASDQCFCEEDNNAILPCNVFEDHEESNNGFRERKAQRHSIWGKSPFE
B4: PYL10 fused to the GAL4 activation domain (pGADT7) (receptor, UniProt Q8H1R0 1-183)
chain: MNGDETKKVESEYIKKHHRHELVESQCSSTLVKHIKAPLHLVWSIVRRFDEPQKYKPFISRCVVQGKKLEVGSVREVDLKSGLPATKSTEVLEILDDNEHILGIRIVGGDHRLKNYSSTISLHSETIDGKTGTLAIESFVVDVPEGNTKEETCFFVEALIQCNLNSLADVTERLQAESMEKKI
B5: PYL11 fused to the GAL4 activation domain (pGADT7) (receptor, UniProt Q9FJ50 1-161)
chain: METSQKYHTCGSTLVQTIDAPLSLVWSILRRFDNPQAYKQFVKTCNLSSGDGGEGSVREVTVVSGLPAEFSRERLDELDDESHVMMISIIGGDHRLVNYRSKTMAFVAADTEEKTVVVESYVVDVPEGNSEEETTSFADTIVGFNLKSLAKLSERVAHLKL
B6: PYL12 fused to the GAL4 activation domain (pGADT7) (receptor, UniProt Q9FJ49 1-159)
chain: MKTSQEQHVCGSTVVQTINAPLPLVWSILRRFDNPKTFKHFVKTCKLRSGDGGEGSVREVTVVSDLPASFSLERLDELDDESHVMVISIIGGDHRLVNYQSKTTVFVAAEEEKTVVVESYVVDVPEGNTEEETTLFADTIVGCNLRSLAKLSEKMMELT
B7: PYL13 fused to the GAL4 activation domain (pGADT7) (receptor, UniProt Q9SN51 1-164)
chain: MESSKQKRCRSSVVETIEAPLPLVWSILRSFDKPQAYQRFVKSCTMRSGGGGGKGGEGKGSVRDVTLVSGFPADFSTERLEELDDESHVMVVSIIGGNHRLVNYKSKTKVVASPEDMAKKTVVVESYVVDVPEGTSEEDTIFFVDNIIRYNLTSLAKLTKKMMK
B8: PYL2 fused to the GAL4 activation domain (pGADT7) (receptor, UniProt O80992 1-190)
chain: MSSSPAVKGLTDEEQKTLEPVIKTYHQFEPDPTTCTSLITQRIHAPASVVWPLIRRFDNPERYKHFVKRCRLISGDGDVGSVREVTVISGLPASTSTERLEFVDDDHRVLSFRVVGGEHRLKNYKSVTSVNEFLNQDSGKVYTVVLESYTVDIPEGNTEEDTKMFVDTVVKLNLQKLGVAATSAPMHDDE
B9: PYL3 fused to the GAL4 activation domain (pGADT7) (receptor, UniProt Q9SSM7 1-209)
chain: MNLAPIHDPSSSSTTTTSSSTPYGLTKDEFSTLDSIIRTHHTFPRSPNTCTSLIAHRVDAPAHAIWRFVRDFANPNKYKHFIKSCTIRVNGNGIKEIKVGTIREVSVVSGLPASTSVEILEVLDEEKRILSFRVLGGEHRLNNYRSVTSVNEFVVLEKDKKKRVYSVVLESYIVDIPQGNTEEDTRMFVDTVVKSNLQNLAVISTASPT
B10: PYL4 fused to the GAL4 activation domain (pGADT7) (receptor, UniProt O80920 1-207)
chain: MLAVHRPSSAVSDGDSVQIPMMIASFQKRFPSLSRDSTAARFHTHEVGPNQCCSAVIQEISAPISTVWSVVRRFDNPQAYKHFLKSCSVIGGDGDNVGSLRQVHVVSGLPAASSTERLDILDDERHVISFSVVGGDHRLSNYRSVTTLHPSPISGTVVVESYVVDVPPGNTKEETCDFVDVIVRCNLQSLAKIAENTAAESKKKMSL
B11: PYL5 fused to the GAL4 activation domain (pGADT7) (receptor, UniProt Q9FLB1 1-203)
chain: MRSPVQLQHGSDATNGFHTLQPHDQTDGPIKRVCLTRGMHVPEHVAMHHTHDVGPDQCCSSVVQMIHAPPESVWALVRRFDNPKVYKNFIRQCRIVQGDGLHVGDLREVMVVSGLPAVSSTERLEILDEERHVISFSVVGGDHRLKNYRSVTTLHASDDEGTVVVESYIVDVPPGNTEEETLSFVDTIVRCNLQSLARSTNRQ
B12: PYL6 fused to the GAL4 activation domain (pGADT7) (receptor, UniProt Q8S8E3 1-215)
chain: MPTSIQFQRSSTAAEAANATVRNYPHHHQKQVQKVSLTRGMADVPEHVELSHTHVVGPSQCFSVVVQDVEAPVSTVWSILSRFEHPQAYKHFVKSCHVVIGDGREVGSVREVRVVSGLPAAFSLERLEIMDDDRHVISFSVVGGDHRLMNYKSVTTVHESEEDSDGKKRTRVVESYVVDVPAGNDKEETCSFADTIVRCNLQSLAKLAENTSKFS
B13: PYL7 fused to the GAL4 activation domain (pGADT7) (receptor, UniProt Q1ECF1 1-211)
chain: MEMIGGDDTDTEMYGALVTAQSLRLRHLHHCRENQCTSVLVKYIQAPVHLVWSLVRRFDQPQKYKPFISRCTVNGDPEIGCLREVNVKSGLPATTSTERLEQLDDEEHILGINIIGGDHRLKNYSSILTVHPEMIDGRSGTMVMESFVVDVPQGNTKDDTCYFVESLIKCNLKSLACVSERLAAQDITNSIATFCNASNGYREKNHTETNL
B14: PYL9 fused to the GAL4 activation domain (pGADT7), Q84MC7 1-187 (receptor)
chain: MMDGVEGGTAMYGGLETVQYVRTHHQHLCRENQCTSALVKHIKAPLHLVWSLVRRFDQPQKYKPFVSRCTVIGDPEIGSLREVNVKSGLPATTSTERLELLDDEEHILGIKIIGGDHRLKNYSSILTVHPEIIEGRAGTMVIESFVVDVPQGNTKDETCYFVEALIRCNLKSLADVSERLASQDITQ
B15: PYL7 fused to the GAL4 activation domain (pGADT7), Q1ECF1 1-211 (receptor)
chain: B13 chain

Protein sequences, listed by entry. Tags and fused reporters are not part of them.
UniProt Q9FDW1: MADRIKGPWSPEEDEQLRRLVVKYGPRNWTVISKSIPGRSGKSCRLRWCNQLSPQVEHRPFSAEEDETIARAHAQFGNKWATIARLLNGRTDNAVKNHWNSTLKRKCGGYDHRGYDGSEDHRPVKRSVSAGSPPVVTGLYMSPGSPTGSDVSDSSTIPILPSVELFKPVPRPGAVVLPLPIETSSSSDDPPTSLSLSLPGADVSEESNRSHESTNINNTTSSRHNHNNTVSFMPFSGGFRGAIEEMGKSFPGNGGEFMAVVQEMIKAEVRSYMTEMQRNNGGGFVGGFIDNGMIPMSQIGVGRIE
UniProt Q9SN12: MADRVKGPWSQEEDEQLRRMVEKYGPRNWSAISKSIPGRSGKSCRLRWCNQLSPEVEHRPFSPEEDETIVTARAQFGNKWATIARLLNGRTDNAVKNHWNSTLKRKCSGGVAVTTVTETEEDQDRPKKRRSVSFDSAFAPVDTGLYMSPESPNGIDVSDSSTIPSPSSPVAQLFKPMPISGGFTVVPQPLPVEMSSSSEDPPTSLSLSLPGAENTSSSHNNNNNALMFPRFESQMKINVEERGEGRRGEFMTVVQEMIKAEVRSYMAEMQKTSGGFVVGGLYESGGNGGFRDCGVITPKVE

biological target: YFP175-end aa -MYBR1 (Arabidopsis thaliana) (UniProt Q9FDW1); test: split reporter; BiFC in N. benthamiana leaf epidermal cells; eYFP reconstituted from YFP1-174 and YFP175-end fusions; settings: not given

**Q.** Which binding does the source give for B1 here?
**A.** binds

biological target: YFP175-end aa -MYBR2 (Arabidopsis thaliana) (UniProt Q9SN12); test: as above; settings: not given

**Q.** How did the binding turn out when B1 was run?
**A.** binds

biological target: AtMYBR1/AtMYB44 full length fused to the GAL4 DNA-binding domain (pGBT9-MYBR1) (Arabidopsis thaliana) (UniProt Q9FDW1); test: two-hybrid; individual clones: pGBT9-MYBR1 or pGBT9-MYBR2 in yeast Y2H Gold mated 1 d at 30°C with pGADT7 fusions in yeast Y187; screened on DDO, DDO/X/A and QDO/X/A; also with phytohormones and inhibitors of auxin signaling (PCIB) and transport (TIBA, NPA), which did not affect the interactions; settings: not given

**Q.** With B2 as the binder, how does the binding read?
**A.** binds

**Q.** How did the binding turn out when B3 was run?
**A.** binds

**Q.** Which binding does the source give for B4 here?
**A.** no binding

**Q.** For B5, which binding is on record?
**A.** no binding

**Q.** Which binding does the source give for B6 here?
**A.** no binding

**Q.** Which binding does the source give for B7 here?
**A.** no binding

**Q.** B8 was tested. Which binding did it give?
**A.** no binding

**Q.** For B9, which binding is on record?
**A.** no binding

**Q.** With B10 as the binder, how does the binding read?
**A.** no binding

**Q.** For B11, which binding is on record?
**A.** no binding

**Q.** With B12 as the binder, how does the binding read?
**A.** no binding

biological target: AtMYBR2/MYB77 full length fused to the GAL4 DNA-binding domain (pGBT9-MYBR2) (Arabidopsis thaliana) (UniProt Q9SN12); test: as above; settings: not given

**Q.** Which binding does the source give for B2 here?
**A.** binds

**Q.** Which binding does the source give for B3 here?
**A.** no binding

**Q.** For B4, which binding is on record?
**A.** no binding

**Q.** With B5 as the binder, how does the binding read?
**A.** no binding

**Q.** With B6 as the binder, how does the binding read?
**A.** no binding

**Q.** How did the binding turn out when B7 was run?
**A.** no binding

**Q.** With B8 as the binder, how does the binding read?
**A.** no binding

**Q.** With B9 as the binder, how does the binding read?
**A.** no binding

**Q.** B10 was tested. Which binding did it give?
**A.** no binding

**Q.** How did the binding turn out when B11 was run?
**A.** no binding

**Q.** B12 was tested. Which binding did it give?
**A.** no binding

**Q.** Which binding does the source give for B13 here?
**A.** no binding

biological target: AtMYBR1/AtMYB44 full length fused to the GAL4 DNA-binding domain (pGBT9-MYBR1) (Arabidopsis thaliana), Q9FDW1; test: as above; settings: remark: other sources report otherwise

**Q.** Which binding does the source give for B14 here?
**A.** no binding

**Q.** With B15 as the binder, how does the binding read?
**A.** no binding

biological target: AtMYBR2/MYB77 full length fused to the GAL4 DNA-binding domain (pGBT9-MYBR2) (Arabidopsis thaliana), Q9SN12; test: as above; settings: remark: other sources report otherwise

**Q.** How did the binding turn out when B14 was run?
**A.** no binding

— article PMC4219380
